Assay results: the supplement of paper PMC10369915
The other results are listed elsewhere or left out. Cut-off read from the data, not from the text of the source: active = 3.2 or more and inactive = the rest. Only a few entries rise above the background.

B1: MKI67_Y241_W238R (peptide)
chain: PFRKLYESVKK
B2: MLH1_Y183_R182K (peptide)
chain: EVVGKYSVHNA
B3: MLH1_Y379_V384D (peptide)
chain: SSDKVYAHQMD
B4: MLPH_Y454_P451S (peptide)
chain: GDSVQYNRTTD
B5: MMAA_Y207_Y207C (peptide)
chain: RDMNACIRPSP
B6: MMP3_Y41_K45E_YF (peptide)
chain: KFLENYFDLEK
B7: MMP3_Y42_YF (peptide)
chain: FLENFYDLKKD
B8: MMUT_Y146_A141T (peptide)
chain: TTHRGYDSDNP
B9: MMUT_Y146_H143Y_YF (peptide)
chain: ATFRGYDSDNP
B10: MMUT_Y364 (peptide)
chain: TEQDPYNNIVR
B11: MNS1_Y244_Y244H (peptide)
chain: NAMRRHIEEFQ
B12: MOCS2_Y170_E168K (peptide)
chain: WKKKIYEESST
B13: MORC2_Y100 (peptide)
chain: TQIGQYGNGLK
B14: MPG_Y75 (peptide)
chain: PYRSIYFSSPK
B15: MPG_Y75_YF (peptide)
chain: PFRSIYFSSPK
B16: MPI_Y46_M51T (peptide)
chain: AEDKPYAELWT
B17: MPP4_Y567_V562I (peptide)
chain: IITDYYVDMKF
B18: MPP4_Y567_V562I_YF (peptide)
chain: IITDFYVDMKF
B19: MPZ_Y177_YF (peptide)
chain: LLLLFYVVRFC

Molecular target: SHP2 C-SH2 domain E139D
Experiment: enrichment score (SH2-bound / input frequency) (ratio); bacterial display of known human phosphotyrosine sites (pTyr-Var adds point mutants) read by sequencing; higher = stronger binding; tyrosines were phosphorylated by kinases first
Conditions: peptide library: pTyr-Var
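Note: displayed peptides selected on beads carrying the immobilized SH2 domain, with library peptides lacking any tyrosine serving as negative controls.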

Enrichment score, inactive:
B1 0.616
B2 0.691
B3 0.467
B4 0.486
B5 0.616
B6 1.78
B7 1.39
B8 0.628
B9 0.964
B10 0.626
B11 0.884
B12 0.613
B13 1.11
B14 0.887
B15 0.96
B16 0.702
B17 1.13
B18 1.3
B19 1.87

Molecular target: SHP2 C-SH2 domain wild-type
Experiment: as above
Conditions: peptide library: pTyr-Var

Enrichment score, inactive:
B1 0.73
B2 0.844
B3 0.471
B4 0.571
B5 0.566
B6 1.34
B7 1.05
B8 1.11
B9 0.567
B10 0.504
B11 0.825
B12 0.854
B13 0.627
B14 0.799
B15 0.816
B16 0.882
B17 1.25
B18 1.71
B19 1.67

Molecular target: SHP2 N-SH2 domain L43F
Experiment: as above
Conditions: peptide library: pTyr-Var

Enrichment score, inactive:
B1 0.503
B2 0.714
B3 0.428
B4 0.507
B5 0.544
B6 1.34
B7 1.06
B8 0.799
B9 0.792
B10 0.532
B11 0.747
B12 0.694
B13 0.57
B14 0.924
B15 0.892
B16 1.02
B17 1.34
B18 1.37
B19 1.57

Molecular target: SHP2 N-SH2 domain T42A
Experiment: as above
Conditions: peptide library: pTyr-Var

Enrichment score, inactive:
B1 0.439
B2 0.823
B3 0.399
B4 0.371
B5 0.561
B6 1.77
B7 1.09
B8 0.69
B9 1.08
B10 0.523
B11 0.735
B12 0.557
B13 0.582
B14 1.14
B15 0.757
B16 2.62
B17 1.29
B18 1.44
B19 1.63

Molecular target: SHP2 N-SH2 domain T52S
Experiment: as above
Conditions: peptide library: pTyr-Var

Enrichment score, inactive:
B1 0.515
B2 0.762
B3 0.563
B4 0.477
B5 0.853
B6 1.77
B7 1.01
B8 0.628
B9 0.563
B10 0.521
B11 0.753
B12 0.708
B13 0.833
B14 1.08
B15 0.843
B16 1.09
B17 1.21
B18 1.3
B19 1.65

Molecular target: SHP2 N-SH2 domain wild-type
Experiment: as above
Conditions: peptide library: pTyr-Var

Enrichment score, inactive:
B1 1.01
B2 0.744
B3 0.504
B4 0.498
B5 0.568
B6 1.71
B7 1.16
B8 0.657
B9 0.873
B10 0.592
B11 1.06
B12 0.933
B13 0.706
B14 0.667
B15 0.777
B16 0.767
B17 1.41
B18 1.64
B19 1.26
